Assay results as given in the supplement of paper PMC4967469.
The IC50 comes from the fitted curve, where viability falls to half of the control; a limit (>, <) means that the fit lies beyond the doses tested. AUC is the area under the same curve over the 256-fold range up to the top dose, as a fraction; the more sensitive the line, the further below 1. For part of these data: Where the top dose is marked as inferred, it was derived from the fitted curves, not read from the paper. For part of these data: Drugs with an entry number were screened twice under separate entries, and the two screens often disagree.

Legend:
Experiment in all cases: Viability of human cancer cell lines after 72 h of drug (GDSC screen)
[1] = compound: CC(=O)O[C@@]12CO[C@@H]1C[C@H](O)[C@@]1(C)C(=O)[C@H](O)C3=C(C)[C@@H](OC(=O)[C@H](O)[C@@H](NC(=O)OC(C)(C)C)c4ccccc4)C[C@@](O)([C@@H](OC(=O)c4ccccc4)[C@H]21)C3(C)C [Docetaxel]; conditions: top dose 0.0125 µM
Protocol: (§1)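 Human cancer cell lines in 384-well plates, medium with 10% serum, drug for 72 h over a 256-fold dose range (nine 2-fold or five 4-fold steps up to the top dose). Adherent lines were fixed and stained with the nucleic acid dye Syto60, suspension lines read with resazurin; signal relative to control wells, capped at 0 and 100%. One two-parameter sigmoid per drug and line, fitted in a mixed model over all curves with the slope shared within a line.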

[2] = compound: CC1(C)CNc2cc(NC(=O)c3cccnc3NCc3ccncc3)ccc21 [AMG-706]; conditions: top dose 2 µM; top dose inferred
Protocol: as §1

[3] = compound: CC1=C2C[C@H]3[C@@H](CC=C4C[C@@H](O)CC[C@@]43C)[C@@H]2CC[C@]12O[C@@H]1C[C@H](C)CN[C@H]1[C@H]2C [Cyclopamine]; conditions: top dose 16 µM; top dose inferred
Protocol: as §1

[4] = compound: CCOc1nc(NC(=O)Cc2cc(OC)ccc2OC)cc(N)c1C#N [JNK Inhibitor VIII]; conditions: top dose 10 µM; top dose inferred
Protocol: as §1

[5] = compound: CN1CCN(c2ccc([N+](=O)[O-])c3no[n+]([O-])c23)CC1 [NSC-207895]; conditions: top dose 20 µM; top dose inferred
Protocol: as §1

[6] = compound: COC(=O)[C@H](CCSC)NC(=O)c1ccc(NC[C@@H](N)CS)cc1-c1ccccc1 [FTI-277]; conditions: top dose 1.024 µM; top dose inferred
Protocol: as §1

[7] = compound: COCC[n+]1c2c(n(Cc3cnccn3)c1C)C(=O)c1ccccc1C2=O [YM155]; conditions: top dose 5.12 µM
Protocol: as §1

[8] = compound: COc1cc(N2CCC(N3CCN(C)CC3)CC2)ccc1Nc1ncc(Cl)c(Nc2ccccc2S(=O)(=O)C(C)C)n1 [NVP-TAE684]; conditions: top dose 2 µM
Protocol: as §1

[9] = compound: C[C@]1(O)C[C@@H](c2nc(-c3ccc4ccc(-c5ccccc5)nc4c3)c3c(N)nccn32)C1 [OSI-906]; conditions: top dose 2.56 µM; top dose inferred
Protocol: as §1

[10] = compound: Cc1ccc(C(=O)N(CCCN)[C@@H](c2nc3cc(Cl)ccc3c(=O)n2Cc2ccccc2)C(C)C)cc1 [SB-715992]; conditions: top dose 0.128 µM; top dose inferred
Protocol: as §1

[11] = compound: Cc1sc2c(c1C)C(c1ccc(Cl)cc1)=N[C@@H](CC(=O)OC(C)(C)C)c1nnc(C)n1-2 [JQ1]
Protocol: as §1

[12] = compound: O=C(/C=C/c1cccc(S(=O)(=O)Nc2ccccc2)c1)NO [Belinostat]; conditions: top dose 20 µM; top dose inferred
Protocol: as §1

[13] = compound: OCCCNc1cc(-c2ccnc(Nc3cccc(Cl)c3)n2)ccn1 [CGP-60474]; conditions: top dose 0.256 µM; top dose inferred
Protocol: as §1

[14] = compound: c1ccc2c(CCNc3ccc(Nc4ccncc4)cc3)c[nH]c2c1 [JNJ-26854165]; conditions: top dose 10 µM
Protocol: as §1

[15] = top dose 1 µM, screen: GDSC drug entry 1218, top dose inferred
[16] = top dose 2.56 µM, screen: GDSC drug entry 163

Row | Cell Line | AUC [1] | IC50 [1] | AUC [2] | IC50 [2] | AUC [3] | IC50 [3] | AUC [4] | IC50 [4] | AUC [5] | IC50 [5] | AUC [6] | IC50 [6] | AUC [7] | IC50 [7] | AUC [8] | IC50 [8] | AUC [9] | IC50 [9] | AUC [10] | IC50 [10] | AUC [11, 15] | IC50 [11, 15] | AUC [11, 16] | IC50 [11, 16] | AUC [12] | IC50 [12] | AUC [13] | IC50 [13] | AUC [14] | IC50 [14]
1 | L-1236 (Hodgkin lymphoma, suspension) | 0.724 | 2.99 nM | 0.992 | > 2000 nM | 0.982 | > 16000 nM | 0.992 | > 10000 nM | 0.972 | > 20000 nM | 0.991 | > 1020 nM | 0.08 | < 20 nM | 0.94 | > 2000 nM | 0.992 | > 2560 nM | 0.988 | > 128 nM | 0.869 | 689 nM | 0.865 | 1700 nM | 0.262 | 300 nM | 0.789 | 94.6 nM | 0.978 | > 10000 nM
2 | LAN-6 (neuroblastoma, adherent) | 0.868 | > 12.5 nM | 0.98 | > 2000 nM | 0.984 | > 16000 nM | 0.983 | > 10000 nM | 0.978 | > 20000 nM | 0.981 | > 1020 nM | 0.419 | 184 nM | 0.557 | 185 nM | 0.626 | 381 nM | 0.983 | > 128 nM | 0.975 | > 1000 nM | 0.854 | > 2560 nM | 0.762 | 8470 nM | 0.764 | 110 nM | 0.864 | > 10000 nM
3 | LB647-SCLC (small cell lung carcinoma, semi-adherent) | 0.89 | > 12.5 nM | 0.967 | > 2000 nM | 0.913 | > 16000 nM | 0.977 | > 10000 nM | 0.874 | > 20000 nM | 0.982 | > 1020 nM | 0.374 | 138 nM | 0.85 | 1810 nM | 0.774 | 1130 nM | 0.746 | 44.7 nM | 0.983 | > 1000 nM | 0.862 | > 2560 nM | 0.802 | 11200 nM | 0.9 | > 256 nM | 0.939 | > 10000 nM
4 | LB771-HNC (head and neck, adherent) | 0.928 | > 12.5 nM | 0.982 | > 2000 nM | 0.962 | > 16000 nM | 0.982 | > 10000 nM | 0.956 | > 20000 nM | 0.964 | > 1020 nM | 0.584 | 575 nM | 0.788 | 1120 nM | 0.586 | 293 nM | 0.847 | > 128 nM | 0.979 | > 1000 nM | 0.585 | 290 nM | 0.562 | 1920 nM | 0.682 | 59.2 nM | 0.929 | > 10000 nM
5 | MFH-ino (soft tissue, adherent) | 0.624 | 1.82 nM | 0.982 | > 2000 nM | 0.966 | > 16000 nM | 0.968 | > 10000 nM | 0.879 | > 20000 nM | 0.98 | > 1020 nM | 0.039 | < 20 nM | 0.615 | 274 nM | 0.966 | > 2560 nM | 0.961 | > 128 nM | 0.977 | > 1000 nM | 0.844 | 2330 nM | 0.549 | 1740 nM | 0.659 | 48.1 nM | 0.875 | > 10000 nM
6 | MHH-PREB-1 (B-cell leukaemia, suspension) | 0.884 | 11.1 nM | 0.988 | > 2000 nM | 0.904 | > 16000 nM | 0.989 | > 10000 nM | 0.879 | 16900 nM | 0.988 | > 1020 nM | 0.028 | < 20 nM | 0.96 | > 2000 nM | 0.984 | > 2560 nM | 0.57 | 12.1 nM | 0.773 | 349 nM | 0.732 | 674 nM | 0.163 | 136 nM | 0.707 | 57 nM | 0.86 | 7020 nM
7 | MOLP-8 (myeloma, suspension) | 0.943 | > 12.5 nM | 0.986 | > 2000 nM | 0.987 | > 16000 nM | 0.986 | > 10000 nM | 0.837 | 12700 nM | 0.968 | > 1020 nM | 0.024 | < 20 nM | 0.678 | 385 nM | 0.551 | 219 nM | 0.333 | 2.79 nM | 0.703 | 227 nM | 0.436 | 108 nM | 0.122 | 82.7 nM | 0.429 | 10.3 nM | 0.939 | > 10000 nM
8 | MONO-MAC-6 (acute myeloid leukaemia, suspension) | 0.885 | > 12.5 nM | 0.971 | > 2000 nM | 0.975 | > 16000 nM | 0.982 | > 10000 nM | 0.687 | 4310 nM | 0.967 | > 1020 nM | 0.044 | < 20 nM | 0.637 | 307 nM | 0.944 | > 2560 nM | 0.654 | 22 nM | 0.813 | 581 nM | 0.8 | 1320 nM | 0.384 | 589 nM | 0.735 | 78.3 nM | 0.843 | 7680 nM
